Data: the supplement of paper PMC12217912
The other results are listed elsewhere or left out. The full chains were built here from the parent and the listed change. Inactive controls read about 0.05.

B1: TEV protease; numbered along this chain (parent)
chain: MGESLFKGPRDYNPISSSICHLTNESDGHTTSLYGIGFGPFIITNKHLFRRNNGTLVVQSLHGVFKVKDTTTLQQHLVDGRDMIIIRMPKDFPPFPQKLKFREPQREERICLVTTNFQTKSMSSMVSDTSCTFPSGDGIFWKHWIQTKDGQCGSPLVSTRDGFIVGIHSASNFTNTNNYFTSVPKNFMELLTNQEAQQWVSGWRLNADSVLWGGHKVFMVKPEEPFQPVKEATQL

Variants of: B1
Test: raw area under fraction-flipped curve 0-4 h after induction (AUC4h, not background-subtracted), DNA-recorder readout of cleavage of the substrate (dimensionless); higher = more cleavage of the substrate by the protease variant
Conditions: temperature: 34 °C; time window: 0-4 h after rhamnose induction
Experimental: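 In vivo DNA recorder in E. coli TOP10(DE3) ΔrhaA at 34 °C. Each TEVp single-site mutant (parent TEVp 0) is paired with a single-site variant of the 7-mer TEVs (canonical ENLYFQ|S). The substrate sits between flexible linkers in a Bxb1-sfGFP-TEVs-SsrA fusion, so cleavage stabilises Bxb1 and speeds flipping of a recombination array, read by NGS. The value is the raw area under the fraction-flipped curve over 0-4 h after rhamnose induction (AUC4h), with ≥20 reads per time point. It is not background-subtracted; inactive controls average about 0.047.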
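Also: Bxb1 expression induced with 0.2% (w/v) L-rhamnose at OD600 near 0.5, cultures sampled hourly, flipped fraction per protease–substrate barcode pair counted by paired-end Illumina sequencing.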

Variant	area with substrate ENLYCQS	area with substrate ENLYDQS	area with substrate ENLYEQS	area with substrate ENLYGQS	area with substrate ENLYIQS	area with substrate ENLYKQS	area with substrate ENLYLQS	area with substrate ENLYNQS	area with substrate ENLYPQS	area with substrate ENLYTQS	area with substrate ENLYYQS	area with substrate ENLYHQS	area with substrate ENLYQQS	area with substrate ENLYRQS	area with substrate ENLYVQS	area with substrate ENLYWQS	area with substrate ENLYMQS	area with substrate ENLYSQS
S130L	0.0734	0.0515	0.0535	0.0709	0.0972	0.0248	0.0667	0.0624	0.0695	0.0712	0.0607							
T70M	0.0702	0.0708	0.0586		0.127			0.0689				0.0619	0.0658	0.0615	0.103	0.0927		
L22F	0.0536	0.0613	0.058		0.0702	0.0415	0.0681	0.0031	0.0599	0.0607	0.0672	0.0558	0.0491	0.0347	0.0928	0.0554	0.0614	
A170M	0.0817	0.0677	0.051	0.0618		0.0056					0.0426	0.0533				0.0558	0.0519	0.0729
I167N	0.0598				0.0563	0.0546	0.0676	0.0488	0.0425	0.0616	0.0519	0.0593	0.0452		0.0592	0.0601	0.0522	
R106L	0.133	0.0607	0.0606	0.0647	0.152	0.0431	0.101	0.0696		0.0657		0.121				0.0608	0.104	0.0824
V67H	0.0898	0.0512	0.0203	0.0661		0.0584			0.0713		0.0636	0.0458	0.0696	0.0568	0.118		0.0762	
K66C	0.103	0.102	0.0674		0.145			0.0684			0.0594	0.0707	0.0643					
Q146L	0.116	0.0554	0.123	0.088				0.0945	0.0656		0.0611	0.0716				0.0912		0.0982
I86G	0.0454		0.0394	0.0528		0.0339		0.0433			0.0282	0.0435				0.0147	0.0215	
I15V	0.0904	0.0666	0.0604	0.101		0.03		0.072	0.0789	0.0763	0.0639	0.0654	0.0596	0.0541	0.117			0.0725
N172F	0.0594		0.0518		0.0515	0.0615									0.0757	0.0443	0.0646	
S60A	0.0623	0.0635	0.0591	0.0614	0.137	0.0738		0.0791	0.0808		0.057	0.0558		0.0423		0.0715	0.0809	0.129
M122S	0.0754		0.0655				0.0629	0.066		0.0554		0.0702				0.0924	0.0768	0.0957
M122G	0.0967			0.0722		0.0226		0.0769				0.0525		0.068	0.0888			
F101T	0.0639	0.0395					0.0671	0.0558		0.0538	0.0551	0.058	0.0585	0.0807	0.0639	0.048	0.0423	0.0505
F163T	0.0842	0.0697	0.0683	0.063				0.0595	0.0703		0.0765	0.0732	0.0598	0.0727	0.111	0.0713	0.121	
N186S	0.0849		0.0535	0.09	0.126	0.0731		0.0598		0.109		0.0621	0.0545	0.0398			0.0814	
D149C	0.103	0.0635	0.0726	0.067	0.0785	0.0633			0.0632		0.0641	0.0727				0.0436		
R50Q	0.0911	0.07	0.0688	0.0734		0.0647		0.0699	0.0837			0.0739	0.0555	0.0698	0.142	0.0998		
K120M	0.0939	0.0626	0.0666		0.115	0.0596			0.083					0.072	0.124		0.101	0.0973
E189W	0.0704	0.0539	0.0858		0.101		0.0748		0.0638			0.0716	0.0758	0.0636	0.128	0.0752	0.096	0.0717
W141Y	0.0797	0.0541		0.0585		0.059		0.0634	0.0575			0.0617			0.122	0.078		0.0713
W141V	0.0658	0.059	0.0671	0.063	0.0728	0.0645		0.0632	0.0483		0.0582	0.0561	0.0566	0.0635	0.0677	0.0661		0.0534
T132L	0.0835	0.0621	0.0481			0.0652		0.075		0.0741		0.0805		0.0503	0.106		0.0803	0.0889
T31L	0.114	0.0428	0.0549	0.0612		0.0568		0.0788	0.0906			0.0748	0.0596		0.13			
T55K	0.0782	0.0608	0.0599	0.0643		0.0749		0.0833	0.0757	0.0646		0.0658	0.054	0.0612	0.14	0.0504	0.0772	0.069
T30V	0.0991	0.0593	0.0869	0.0797	0.118	0.062			0.0663			0.0815	0.0608		0.123	0.0937	0.0666	
T181S	0.0886	0.0378	0.0828	0.0602	0.0796	0.0681	0.0663		0.0649	0.0774		0.0551	0.0638					
G39P	0.0232	0.0258	0.0463	0.0542	0.0468	0.0362	0.0542	0.0354	0.0426	0.0347	0.053	0.0412	0.0623			0.0478	0.0435	
